{"source": "the supplement of paper PMC12423691", "binders": {"B1": {"name": "DRAP1, Q14919 (protein)", "chain": "MPSKKKKYNARFPPARIKKIMQTDEEIGKVAAAVPVIISRALELFLESLLKKACQVTQSRNAKTMTTSHLKQCIELEQQFDFLKDLVASVPDMQGDGEDNHMDGDKGARRGRKPGSGGRKNGGMGTKSKDKKLSGTDSEQEDESEDTDTDGEEETSQPPPQASHPSAHFQSPPTPFLPFASTLPLPPAPPGPSAPDEEDEEDYDS"}, "B2": {"name": "TRIM38, O00635 (protein)", "chain": "MASTTSTKKMMEEATCSICLSLMTNPVSINCGHSYCHLCITDFFKNPSQKQLRQETFCCPQCRAPFHMDSLRPNKQLGSLIEALKETDQEMSCEEHGEQFHLFCEDEGQLICWRCERAPQHKGHTTALVEDVCQGYKEKLQKAVTKLKQLEDRCTEQKLSTAMRITKWKEKVQIQRQKIRSDFKNLQCFLHEEEKSYLWRLEKEEQQTLSRLRDYEAGLGLKSNELKSHILELEEKCQGSAQKLLQNVNDTLSRSWAVKLETSEAVSLELHTMCNVSKLYFDVKKMLRSHQVSVTLDPDTAHHELILSEDRRQVTRGYTQENQDTSSRRFTAFPCVLGCEGFTSGRRYFEVDVGEGTGWDLGVCMENVQRGTGMKQEPQSGFWTLRLCKKKGYVALTSPPTSLHLHEQPLLVGIFLDYEAGVVSFYNGNTGCHIFTFPKASFSDTLRPYFQVYQYSPLFLPPPGD"}, "B3": {"name": "NLRP12, P59046 (protein)", "chain": "MLRTAGRDGLCRLSTYLEELEAVELKKFKLYLGTATELGEGKIPWGSMEKAGPLEMAQLLITHFGPEEAWRLALSTFERINRKDLWERGQREDLVRDTPPGGPSSLGNQSTCLLEVSLVTPRKDPQETYRDYVRRKFRLMEDRNARLGECVNLSHRYTRLLLVKEHSNPMQVQQQLLDTGRGHARTVGHQASPIKIETLFEPDEERPEPPRTVVMQGAAGIGKSMLAHKVMLDWADGKLFQGRFDYLFYINCREMNQSATECSMQDLIFSCWPEPSAPLQELIRVPERLLFIIDGFDELKPSFHDPQGPWCLCWEEKRPTELLLNSLIRKKLLPELSLLITTRPTALEKLHRLLEHPRHVEILGFSEAERKEYFYKYFHNAEQAGQVFNYVRDNEPLFTMCFVPLVCWVVCTCLQQQLEGGGLLRQTSRTTTAVYMLYLLSLMQPKPGAPRLQPPPNQRGLCSLAADGLWNQKILFEEQDLRKHGLDGEDVSAFLNMNIFQKDINCERYYSFIHLSFQEFFAAMYYILDEGEGGAGPDQDVTRLLTEYAFSERSFLALTSRFLFGLLNEETRSHLEKSLCWKVSPHIKMDLLQWIQSKAQSDGSTLQQGSLEFFSCLYEIQEEEFIQQALSHFQVIVVSNIASKMEHMVSSFCLKRCRSAQVLHLYGATYSADGEDRARCSAGAHTLLVQLPERTVLLDAYSEHLAAALCTNPNLIELSLYRNALGSRGVKLLCQGLRHPNCKLQNLRLKRCRISSSACEDLSAALIANKNLTRMDLSGNGVGFPGMMLLCEGLRHPQCRLQMIQLRKCQLESGACQEMASVLGTNPHLVELDLTGNALEDLGLRLLCQGLRHPVCRLRTLWLKICRLTAAACDELASTLSVNQSLRELDLSLNELGDLGVLLLCEGLRHPTCKLQTLRLGICRLGSAACEGLSVVLQANHNLRELDLSFNDLGDWGLWLLAEGLQHPACRLQKLWLDSCGLTAKACENLYFTLGINQTLTDLYLTNNALGDTGVRLLCKRLSHPGCKLRVLWLFGMDLNKMTHSRLAALRVTKPYLDIGC"}}, "note": "The other results are listed elsewhere or left out. Binding of human transcription factors and regulators to the viral nucleoprotein by AlphaScreen, crude cell-free proteins, amounts not normalised, one pass. Fold of the Venus control; higher = more signal. No active / inactive call. Single-pass screen; sequences are the whole Swiss-Prot entries looked up by name.", "data": [{"molecular_target": "nucleoprotein N of Crimean-Congo hemorrhagic fever virus", "experiment": "AlphaScreen luminescence signal relative to Venus negative control (fold); higher = stronger binding to CCHFV N", "protocol": "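AlphaScreen binding of cell-free made, FLAG-GST-tagged human transcription factors and regulators (crude translation products) to biotinylated N protein; signal as fold of the FLAG-GST-Venus control. One pass.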", "values": [{"binder": "B1", "AlphaScreen luminescence signal": 1.49}, {"binder": "B2", "AlphaScreen luminescence signal": 1.95}, {"binder": "B3", "AlphaScreen luminescence signal": 2}]}]}
